Results from publication PMC10668032.
Some of the results follow. At the low end of the ranking the order means little.

Each sequence was assayed against SIX1-Q177R homeodomain (UniProt Q15475) (assay: universal protein binding microarray). Conditions: Universal all-10-mer PBM (8x60K, AMADID 030236), 300 nM GST-tagged protein, Alexa Fluor 488 anti-GST; buffer, salt, pH and temperature not stated; high values mean tight binding; most listed sequences are background and not binding sites; double strand, one strand shown.
Sequence ACCGACCC has a binding signal of 0.192 E-score.
ATATTTTA was tested, and the binding signal was -0.144 E-score.
With GCCTTGTA the binding signal was -0.129 E-score.
Work on GGCCAAAC yielded a binding signal of -0.149 E-score.
With CAATTTGA the binding signal was -0.215 E-score.
With CCCTATTC the binding signal was 0.0919 E-score.
In the case of GCACATGA, the binding signal is reported as -0.0817 E-score.
For AGCGTATC, the binding signal was 0.0781 E-score.
Sequence TAGAGTCA has a binding signal of 0.196 E-score.
GAGACTAA showed a binding signal of -0.244 E-score.
Work on GAATTGTC yielded a binding signal of -0.126 E-score.
AGATGCTG showed a binding signal of -0.128 E-score.
In the case of CGGCCACG, the binding signal is reported as -0.184 E-score.
Work on CGTCGTAC yielded a binding signal of 0.0751 E-score.
Sequence TCCGGCCA has a binding signal of -0.127 E-score.
Work on CAAGAACA yielded a binding signal of 0.134 E-score.
In the case of ATCGGACC, the binding signal is reported as -0.0911 E-score.
With ATGCCTAG the binding signal was -0.17 E-score.
AACGTTCG showed a binding signal of -0.275 E-score.
For AAACACAC, the binding signal was 0.344 E-score.
ACTCGAGG gave a binding signal of 0.048 E-score.
ATCTGGGG was tested, and the binding signal was 0.0854 E-score.
For GTAGCCAC, the binding signal was 0.00912 E-score.
ACACCTAT was tested, and the binding signal was 0.448 E-score.
In the case of GCTACCAA, the binding signal is reported as -0.0991 E-score.
AGTCGTGG gave a binding signal of 0.076 E-score.
In the case of CTTCACTA, the binding signal is reported as -0.0348 E-score.
Sequence AAGCTACG has a binding signal of -0.282 E-score.
Work on AATCCCAC yielded a binding signal of 0.0307 E-score.
AACGGGAG was tested, and the binding signal was -0.0386 E-score.
Work on GCCTGCAC yielded a binding signal of 0.124 E-score.
In the case of CCGAACCC, the binding signal is reported as 0.186 E-score.
CACCACGC was tested, and the binding signal was 0.282 E-score.
In the case of ACTGGGCT, the binding signal is reported as 0.0373 E-score.
AGGCACAA gave a binding signal of -0.021 E-score.
With CATAGCGC the binding signal was 0.0151 E-score.
ATTCAGCG was tested, and the binding signal was -0.222 E-score.
Sequence AGGATTCC has a binding signal of -0.0501 E-score.
Sequence GGAACCCC has a binding signal of 0.165 E-score.
Work on CCAAAACA yielded a binding signal of 0.0576 E-score.
In the case of CAACGTGC, the binding signal is reported as -0.235 E-score.
TTATTAAA showed a binding signal of -0.084 E-score.
Work on CGCATTTC yielded a binding signal of -0.154 E-score.
ACATACAG gave a binding signal of 0.00972 E-score.
ACGGAAGG was tested, and the binding signal was -0.0151 E-score.
GTGTACTA gave a binding signal of 0.438 E-score.
With GTCTATGA the binding signal was -0.154 E-score.
For AATCGTTA, the binding signal was -0.198 E-score.
With ATTGTGCC the binding signal was -0.0983 E-score.
For AATTAGCT, the binding signal was -0.0897 E-score.
For AGGTACGG, the binding signal was 0.0782 E-score.
For AATATTCA, the binding signal was -0.189 E-score.
Work on CGTTTACA yielded a binding signal of 0.154 E-score.
GCCTTCAA showed a binding signal of -0.0709 E-score.
Work on CCATCAGA yielded a binding signal of 0.00439 E-score.
GATGTTCA gave a binding signal of -0.176 E-score.
For AGGTGTCA, the binding signal was 0.486 E-score.
Sequence ATTACACG has a binding signal of 0.435 E-score.
GCGCCCGC was tested, and the binding signal was -0.169 E-score.
For CACACGAG, the binding signal was 0.238 E-score.
Work on ACTAGGCA yielded a binding signal of -0.0193 E-score.
AAGACAGG showed a binding signal of -0.101 E-score.
Work on AAATGCCT yielded a binding signal of 0.0125 E-score.
GTAGTCTA showed a binding signal of -0.0737 E-score.
With GAGTTTGC the binding signal was -0.17 E-score.
CAATTTGC showed a binding signal of -0.184 E-score.
Work on CCGGTGAA yielded a binding signal of -0.122 E-score.
Sequence ACCGCTCG has a binding signal of -0.0234 E-score.
CCCTGAAC gave a binding signal of 0.0787 E-score.
In the case of TACATGGA, the binding signal is reported as 0.0259 E-score.
Sequence CCCGCACG has a binding signal of 0.139 E-score.
In the case of AGGGAAAA, the binding signal is reported as -0.149 E-score.
In the case of GAAGCATA, the binding signal is reported as -0.283 E-score.
With TGAAAAAA the binding signal was -0.224 E-score.
For ATTGCGTC, the binding signal was 0.0916 E-score.
With CCCACGCC the binding signal was 0.0432 E-score.
For ACAGCCGT, the binding signal was 0.0707 E-score.
For AAATATTT, the binding signal was -0.346 E-score.
ACTCCGTA gave a binding signal of 0.0053 E-score.
Sequence GCTGCTGA has a binding signal of -0.0346 E-score.
Sequence GCGATATA has a binding signal of -0.166 E-score.
ACGGTGCT showed a binding signal of 0.179 E-score.
Sequence GGTAGGAA has a binding signal of -0.174 E-score.
For TAATAGAA, the binding signal was -0.0487 E-score.
For ACAAAGTC, the binding signal was -0.157 E-score.
With GTAGTGTA the binding signal was 0.427 E-score.
Sequence AATCTACG has a binding signal of -0.139 E-score.
In the case of ATTACATA, the binding signal is reported as -0.126 E-score.
CACACGCG showed a binding signal of 0.296 E-score.
For AGCGTTCA, the binding signal was -0.263 E-score.
With GCAACTTA the binding signal was -0.157 E-score.
In the case of CCTAACAG, the binding signal is reported as -0.208 E-score.
For CGGTGGCA, the binding signal was 0.0213 E-score.
With GCAAGAGA the binding signal was -0.198 E-score.
For ATACAGGC, the binding signal was -0.26 E-score.
With CGGGCGAC the binding signal was 0.215 E-score.
CTGCATAA was tested, and the binding signal was -0.0537 E-score.
Sequence ATTTGTGA has a binding signal of -0.0853 E-score.
Sequence ACGAGAAG has a binding signal of -0.025 E-score.
CTTGCCCA showed a binding signal of -0.171 E-score.
With TGTCGAAA the binding signal was 0.196 E-score.
Sequence AGCCTATA has a binding signal of -0.161 E-score.
Sequence ATGTTGAC has a binding signal of -0.0419 E-score.
Work on AATATATT yielded a binding signal of -0.237 E-score.
In the case of ATAATACA, the binding signal is reported as 0.166 E-score.
AGCTAGTC gave a binding signal of -0.227 E-score.
ATCGGGGA gave a binding signal of 0.0925 E-score.
AGTTGCAT gave a binding signal of 0.0222 E-score.
CTCGTTCC gave a binding signal of -0.1 E-score.
CGCAGAAC showed a binding signal of -0.0421 E-score.
AGAATCAG gave a binding signal of -0.111 E-score.
With GCCCTAAA the binding signal was -0.0722 E-score.
In the case of AATTCATC, the binding signal is reported as -0.232 E-score.
In the case of TCGTATAA, the binding signal is reported as -0.158 E-score.
ATTCCGCG was tested, and the binding signal was -0.0292 E-score.
Sequence CATATTGG has a binding signal of -0.0511 E-score.
Sequence AAGTATCT has a binding signal of -0.109 E-score.
For TGCTAGAA, the binding signal was -0.158 E-score.
AGGGGTTG was tested, and the binding signal was 0.0874 E-score.
For GCTCATAC, the binding signal was -0.137 E-score.
CCGCACGA was tested, and the binding signal was 0.127 E-score.
With CGATTGTC the binding signal was -0.157 E-score.
Sequence CTACAGAA has a binding signal of -0.212 E-score.
For GGACACCC, the binding signal was 0.48 E-score.
In the case of GTATGTCA, the binding signal is reported as -0.0582 E-score.
Sequence AATTATTG has a binding signal of -0.239 E-score.
GTAGCCGA was tested, and the binding signal was -0.0107 E-score.
AACGAGCA was tested, and the binding signal was 0.062 E-score.
Work on GTATGTAA yielded a binding signal of -0.0767 E-score.
In the case of CCTGATCA, the binding signal is reported as -0.0324 E-score.
Work on AACAAAAG yielded a binding signal of -0.187 E-score.
AGCATAGG showed a binding signal of -0.16 E-score.
For GACGTTGC, the binding signal was -0.231 E-score.
CAAAAGGG was tested, and the binding signal was -0.0275 E-score.
With ATCATTGA the binding signal was -0.0439 E-score.
Sequence GACGGACC has a binding signal of -0.174 E-score.
In the case of CAGCGGAA, the binding signal is reported as -0.331 E-score.
TCATTAAA showed a binding signal of -0.0948 E-score.
With ACATTCAT the binding signal was -0.276 E-score.
With AACCCTCA the binding signal was 0.113 E-score.
TCGGGACA showed a binding signal of 0.0925 E-score.
In the case of CAATTAGC, the binding signal is reported as -0.121 E-score.
Work on GAGACCGA yielded a binding signal of -0.0916 E-score.
In the case of ATCGGCAC, the binding signal is reported as 0.175 E-score.
Work on CCTACCAG yielded a binding signal of -0.164 E-score.
In the case of ACTCACGC, the binding signal is reported as 0.0814 E-score.
Sequence CAGAGATA has a binding signal of -0.0053 E-score.
AGTCAACC was tested, and the binding signal was -0.0208 E-score.
GGGTTCAC was tested, and the binding signal was 0.184 E-score.
AGGAAGAG showed a binding signal of -0.181 E-score.
AATCCCCT gave a binding signal of 0.0434 E-score.
TCGCGAGA gave a binding signal of -0.159 E-score.
ATATCTTC was tested, and the binding signal was -0.131 E-score.
With AGAAGTAG the binding signal was -0.171 E-score.
In the case of AGCCCCAT, the binding signal is reported as -0.122 E-score.
With CACTACCA the binding signal was 0.227 E-score.
AATGTTGC showed a binding signal of -0.0683 E-score.
Sequence AAGGTGGG has a binding signal of 0.0518 E-score.
For GCGGAATA, the binding signal was -0.0323 E-score.
With TCCTACGA the binding signal was -0.047 E-score.
AAGACGGT gave a binding signal of 0.0423 E-score.
In the case of ATGAGAAC, the binding signal is reported as -0.0295 E-score.
CGCGGGTA gave a binding signal of 0.273 E-score.
ATGCTATA gave a binding signal of -0.237 E-score.
Sequence ATCGTTGC has a binding signal of -0.0129 E-score.
Sequence AATAGATA has a binding signal of -0.137 E-score.
Sequence GGCCTCGA has a binding signal of -0.0916 E-score.
ATCCTAAA showed a binding signal of -0.0399 E-score.
ACAGTGGC showed a binding signal of -0.0762 E-score.
AGAGGCTC showed a binding signal of -0.223 E-score.
In the case of ACCCGCAC, the binding signal is reported as 0.147 E-score.
TTCTACAA was tested, and the binding signal was 0.0242 E-score.
